Variants at the background level are over-represented here.
B1: tRNA (parent)
chain: CUCUCGGUAGCCAAGUUGGUUUAAGGCGCAAGACUUUAAUUUAUCACUACGAAAUCUUGAGAUCGGGCGUUCGACUCGCCCCCGGGAGAUUUUUUCCUCGAGCAA

Variants of: B1
Test: nonsense suppression (GFP-seq) (ratio to wild type); higher = more function; SUP4oc tRNA, yeast GFP reporter sort-seq
Procedure, shortened: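 Sorted GFP/RFP bins of yeast were each Illumina-sequenced with a phred ≥30 cutoff; the cells held a genome-integrated ochre-suppressor tRNA variant from a library with ~3% random mutations, a galactose-driven GFP ochre reporter, and RFP. Culture was in raffinose/galactose medium containing 80 mg/L adenine. Nonsense suppression, termed GFPSEQ, is the median GFP/RFP of the bins weighted by each variant's estimated cell share per bin, relative to the unmutated parent tRNA, for variants reaching ≥100 reads and ≥30 cells.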

Row | Variant | nonsense suppression
1 | CUCUCGGUAGCCAAGUUGGGUUAAGGCGCAAGACUUUAAUUUAUCACUACGAAAUCUUGUGAUCGGGCGUUCGACUCGCCCCCGGCAGAUUUUUUCCUCGAGCAA [U20G A60U G86C] | ≤ 0.026
2 | CUCUCGGUAGCCAAGUUGGGUUAAGUCGCAAGACUUUAAUUUAUCACUACGAAAUCUUGAGAUCGGGCGUUCGAUUCGCCCCCGGGAGAUUUUUUCCUCGAGCAA [U20G G26U C75U] | ≤ 0.026
3 | CUCUCGGUAGCCAAGUUGGGUUAAGGCGCAAGACUUUAAUUUAUCACUACGAAGUCUAGAGAUCGGGCGUUCGACUCGCCCCCGGGAGAUUUUUUCCUCGAGCAA [U20G A54G U58A] | ≤ 0.026
4 | CUCUCGGUAGCCAAGUUGGGUUAAGGCGCAAGACUUUAAUUUAUCACUACGAAAUCUUGAGAUCGGGAGUUCGACUCGCCCCCGGGAGAUUUUUUCCUCGAGCAA [U20G C68A] | ≤ 0.026
5 | CUCUCGGUAGCCAAGUUGGGUUAAGGCGCAGGACUUUAAUUUAUCACUACGAAAUCUUGACAUCGGGCGUUCGACUCGCCCCCGGGAGUUUUUUUCCUCGAGCAA [U20G A31G G61C A89U] | ≤ 0.026
6 | CUCUCGGUAGCCAAGUUGGGUUAAGGCGCAAAACGUUAAUUUAUCACUACGAAAUCUUGAGAUCGGGCGUUCGACUCGCCCCCGGGAGAUUUUUUCCUCGAGCAA [U20G G32A U35G] | ≤ 0.026
7 | CUCUCGGUAGCCAAGUUGGGUUAAGGCGCAAGACUUUAAUUUAUCACUACGAAAUCUUCAGAUCGGCCGUUCGACUCGCCCCCGGGAGAUUUUUUCCUCGAGCAA [U20G G59C G67C] | ≤ 0.026
8 | CUCUCGGUAGCCAAGUUGGGAUAAGGCGCAAGACUUUAAUUUAUCACUACGAAAUCUUGAGAUCGGGCGUCCGACCCGCCCCCGGGAGAUUUUUUCCUCGAGCAA [U20G U21A U71C U76C] | ≤ 0.026
9 | CUCUCGGUAGCCAAGUUGGGUUAAGGCGCAAGACUUUAAUUUAUCACUACGAAAUCUUGAGAUCGGGCGUUCGACUCCCCCCCGCGAGAUUUUUUCCUCGAGCAA [U20G G78C G85C] | ≤ 0.026
10 | CUCUCGGUAGCCAAGUUGGGUUAAGGCGCAAGACUUUAAUUUAUCACUACGAAAUCGUGAGAUCGGGCUUUCGACUCGCCCCCGGGAGAUUUUUUCCUCGAGCAA [U20G U57G G69U] | ≤ 0.026
11 | CUCUCGGUAGCCAAGUUGGGUUAAGGCGCAAGACUUUAAUUUAUCACUACGAAAUCUUGAGAUCGGGCGUUCCACUCGCCCCCGGGAGAUUUUUUCCUCGAGCAA [U20G G73C] | ≤ 0.026
12 | CUCUCGGUAGCCAAGUUGGGUUAAGGCCCAAGACUUUAAUUUAUCACUACGAAACCUUGAGAUCGGGCGUUCGUCUCGCCCCCGGGAGAUUUUUUCCUCGAGCAA [U20G G28C U55C A74U] | ≤ 0.026
13 | CUCUCGGUAGCCAAGUUGGGCUAAGACGCAAGACUUUAAUUUAUCACUACGAAAUCUUGAGAUCGGGCGUUCGACUCGCCCCCGGGAGAUUUUUUCCUCGAGCAA [U20G U21C G26A] | ≤ 0.026
14 | CUCUCGGUAGCCAAGUUGGGUUAAGGCGCAAGACUUUAAUUUAUCACUACGAAAUCUUGAGAUCGUGCGUUCGACUCGCCCCCGGGAGAUUUUUUCCUCGAGCAA [U20G G66U] | ≤ 0.026
15 | CUCUCGGUAGCCAAGUUGGGUUAAGGCGCAAGACUUUAAUUUAUCACUACGAAAUCUUGAGAUCGAGCGUUCGACUCGCCCCCGGGAGAUUUUUUCCUCGAGCAA [U20G G66A] | ≤ 0.026
16 | CUCUCGGUAGCCAAGUUGGGUUAAGGCGCAAGACUUUAAUUUAUCACUACGAAAUCUUGAAAUCGGGCGUUCGACUCGCCCCCGGGAGAUUUUUUCCUCGAGCAA [U20G G61A] | 0.635
17 | CUCUCGGUAGCCAAGUUGGGUUAAGGCGCAAGACUUUAAUUUAUCACUACGAAAUCUUGGGAUCGGGCGUUCGACUCGCCCCCGGGAGAUUUUUUCCUCGAGCAA [U20G A60G] | 0.477
18 | CUCUCGGUAGCCAAGUUGGUAUCAGGCGCAAGACUUUAAUUUAUCACUACGAAAUCUUGAGAUCGGGCGUUCGACUCGCGCCCUGGAGAUUUUUUCCUCGAGCAA [U21A A23C C80G G84U] | ≤ 0.026
19 | CUCUCGGUAGCCAAGUUGGGUUAAGGCGCAAGACUUUAAUUUAUCACUACGAAAUCUUGAGUUCGGGCGUUCGACUCGCCCCCGGGUGAUUUUUUCCUCGAGCAA [U20G A62U A87U] | ≤ 0.026
20 | CUCUCGGUAGCCAAGUUGGGUUAAGGCACAAGACUUUAAUUUAUCACUACGAAAUCUUGAGAUCGGGCGUUCGACUCGCCCUCGGGAGAUUUUUUCCUCGAGCAA [U20G G28A C82U] | 0.239
21 | CUCUCGGUAGCCAAGUUGGGUUAAGGCGCAAGACUUUAAUUUAUCACUACGAAAUUAUGAUAUCGGGCGUUCGACUCACCCCCGGGAGAUUUUUUCCUCGAGCAA [U20G C56U U57A G61U G78A] | ≤ 0.026
22 | CUCUCGGUAGCCAAGUUGGGUUAAUGCGCAAGACUUUAAUUUAUCACUACGAAAUCUUGAGAUCGGGCGUUCGACUCGCCCCCGGGAGAUUUUUUCCUCGAGCAA [U20G G25U] | ≤ 0.026
23 | CUCUCGGUAGCCAAGUUGGGUUAAGACGCAAGACUUUAAUUUAUCACUACGAAAUCUUGAGAUCGGGCGUUCGACUCGCCCCCCGGAGAUUUUUUCCUCGAGCAA [U20G G26A G84C] | ≤ 0.026
24 | CUCUCGGUAGCCAAGUUGGUAUCAGGCGCAAGACUUUAAUUUAUCACUACGAAAUCUUGAGAUCGGGCGUUCGACCCGCGCCCGGGAGAUUUUUUCCUCGAGCAA [U21A A23C U76C C80G] | ≤ 0.026
25 | CUCUCGGUAGCCAAGUUGGGUUAAGGCGCACGACUUUAAUUUAUCACUACGAAAUCUUUAGAUCGGGCGUUCGACUCGCCCCCGGGCGAUUUUUUCCUCGAGCAA [U20G A31C G59U A87C] | ≤ 0.026
26 | CUCUCGGUAGCCAAGUUGGGUUAAGGCGCAAGACUUUAAUUUAUCACUACGAAAUCUUGAGAUCGGGCGUGCGACUCGCCCCCGGGAGAUUUUUUCCUCGAGCAA [U20G U71G] | ≤ 0.026
27 | CUCUCGGUAGCCAAGUUGGGUUAAGGCGCAAGACUUUAAUUUAUCACUACGAAAUCUUGAGAUCGGGCGAUCGACUCGCCCCCGGGAGAUUUUUUCCUCGAGCAA [U20G U70A] | ≤ 0.026

— the RNAGym collection of RNA variant scans (doi:10.1101/gad.245936.114)
